Data: article PMC6249969
Results are given in words; binding and its absence hold for the method and conditions named. In cells and extracts the contact can be indirect. Some entries that bind do so weakly or less than the wild type. Tags and fused reporters may be left off the sequences shown.

By UniProt entry, the sequences of proteins in these tests, tags left out.
UniProt Q9SJM0: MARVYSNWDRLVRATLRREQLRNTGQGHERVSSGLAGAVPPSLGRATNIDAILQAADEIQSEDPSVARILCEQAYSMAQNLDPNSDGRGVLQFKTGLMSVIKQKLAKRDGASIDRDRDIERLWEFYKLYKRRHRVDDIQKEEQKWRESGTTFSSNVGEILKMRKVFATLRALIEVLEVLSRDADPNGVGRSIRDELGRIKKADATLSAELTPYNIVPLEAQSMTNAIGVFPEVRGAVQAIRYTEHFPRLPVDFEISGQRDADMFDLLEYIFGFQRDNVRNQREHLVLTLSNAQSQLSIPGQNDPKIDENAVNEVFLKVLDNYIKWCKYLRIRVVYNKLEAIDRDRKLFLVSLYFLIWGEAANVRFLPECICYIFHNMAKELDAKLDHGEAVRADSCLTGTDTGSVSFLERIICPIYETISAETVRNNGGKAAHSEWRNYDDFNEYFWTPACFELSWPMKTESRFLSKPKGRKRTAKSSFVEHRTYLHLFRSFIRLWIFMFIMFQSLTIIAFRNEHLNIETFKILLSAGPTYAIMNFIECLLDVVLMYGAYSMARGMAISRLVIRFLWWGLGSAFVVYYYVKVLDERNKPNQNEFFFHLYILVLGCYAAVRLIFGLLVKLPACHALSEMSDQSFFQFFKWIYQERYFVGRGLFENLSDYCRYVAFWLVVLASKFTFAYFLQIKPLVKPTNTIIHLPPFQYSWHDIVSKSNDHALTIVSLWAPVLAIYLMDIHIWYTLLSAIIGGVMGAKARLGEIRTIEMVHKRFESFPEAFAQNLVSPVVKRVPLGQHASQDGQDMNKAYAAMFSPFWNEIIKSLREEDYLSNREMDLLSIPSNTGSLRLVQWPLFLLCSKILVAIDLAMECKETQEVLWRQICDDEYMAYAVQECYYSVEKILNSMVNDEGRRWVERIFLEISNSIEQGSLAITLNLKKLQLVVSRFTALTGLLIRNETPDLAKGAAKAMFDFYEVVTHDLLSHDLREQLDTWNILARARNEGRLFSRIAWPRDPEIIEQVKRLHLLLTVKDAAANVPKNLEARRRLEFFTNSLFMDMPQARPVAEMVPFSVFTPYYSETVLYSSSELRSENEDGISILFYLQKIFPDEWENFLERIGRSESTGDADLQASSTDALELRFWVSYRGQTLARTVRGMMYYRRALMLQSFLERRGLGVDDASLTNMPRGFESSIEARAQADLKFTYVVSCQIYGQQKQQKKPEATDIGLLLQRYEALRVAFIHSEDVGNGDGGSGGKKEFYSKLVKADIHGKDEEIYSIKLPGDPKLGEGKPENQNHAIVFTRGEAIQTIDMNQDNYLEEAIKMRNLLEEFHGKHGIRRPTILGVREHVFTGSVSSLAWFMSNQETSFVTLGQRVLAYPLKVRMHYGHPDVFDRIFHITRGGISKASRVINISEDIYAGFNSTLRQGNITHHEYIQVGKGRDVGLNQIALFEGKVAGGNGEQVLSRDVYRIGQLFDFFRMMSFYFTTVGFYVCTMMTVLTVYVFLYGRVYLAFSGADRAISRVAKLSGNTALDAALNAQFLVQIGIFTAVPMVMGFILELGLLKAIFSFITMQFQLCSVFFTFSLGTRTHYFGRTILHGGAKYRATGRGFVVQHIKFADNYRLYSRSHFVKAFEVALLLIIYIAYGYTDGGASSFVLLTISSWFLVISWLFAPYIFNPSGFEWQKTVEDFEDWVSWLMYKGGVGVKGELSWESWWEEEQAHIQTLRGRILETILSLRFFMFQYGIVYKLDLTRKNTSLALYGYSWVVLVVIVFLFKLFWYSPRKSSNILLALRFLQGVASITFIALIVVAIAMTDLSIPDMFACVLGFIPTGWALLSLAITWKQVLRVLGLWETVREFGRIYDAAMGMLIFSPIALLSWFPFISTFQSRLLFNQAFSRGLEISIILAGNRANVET

Target: GLUCAN SYNTHASE-LIKE 8 (GSL8) fused to YFP (Arabidopsis thaliana) (UniProt Q9SJM0)
Experiment: FRET or BRET; FRET by acceptor photobleaching in infiltrated N. bentamiana leaves, 3 dpi; GSL8-YFP (acceptor) with candidate interactor fused to CFP (donor)

B1: stomatal cytokinesis-defective 1 (SCD1) fused to CFP (protein, UniProt Q8RXA7 1-1187)
chain: MGRIFEYFVVCGLGPEMRTVDGDLGFHGMQTFYLPALLDQFPPTDQSPYPAPPPQLPTCVLPAGVEFHSSGFVSSDPASFPRSYPIVLTEGDGSKIFVSCIAFRDRVCEDIIEAYRLPPNTYADKCICLVSHAPNFRVLRNSLEEIFVLCFSSEGSCKPLWDIIAYMVSNVPLPTPGKDRVLFAVENCLLSVEAPPEDSLPQADISLQPLVQCLDVDNLIKLFTSVLVERRILIRSNKYSLLTLVSESICHLIYPFRWLQVYIPLLFFSGVDYIDAPTPYMMGLHSDVDTSNLAMDGVVVVDLDINQITTSEEIPQIPEPEFSTLRNDILKLLHPNVVAIDQLKGFGNSVEQCPKSLSKPWGEDHDLQLRVIFLKCFASILGGYRNFIENKVFSTDAFLKRRSRSTNQPPEPMLVQFLGSFAFLDYLERRLSSDEKSTNLLEKLQDAVGRGQDAMSILPKSSMEPEIITIAEPEVEESATRYTYDRFPASVRSEEQEEKRKQILAAASGALESNGRHPPSSPPGKNTKEDNFSSMERAAERERMVLDIQVKLQGLWLRLLKLGSDEDPLSSFEYGTILALIESDAEGIGGSGFIECIREHLYSGWHGQLSEEQFIAVKELLKMAVGRAASRSDLSTVRDALEVSAEMFKKDANNVSDYVQRHLISIPIWEELRFWEGYFEYLMEQPANESVNYATLVTARLIIVASHMAGLGLPDTEAWNMIETIAEKQKLGYKLLIKLRGFLSHVQQLRVGYWGASSFKQQAISAGLPSPRPKDVSVSDETQQPSEASGRSWVQSMFSRDTASRANSFSRVRKWVSDNASSDITAAAQKKIQTNVRVLKGHGGAVTALHSVTRREVCDLVGDREDAGFFISGSTDCLVKIWDPSLRGSELRATLKGHTGTVRAISSDRGKIVSGSDDLSVIVWDKQTTQLLEELKGHDSQVSCVKMLSGERVLTAAHDGTVKMWDVRTDMCVATVGRCSSAILSLEYDDSTGILAAAGRDTVANIWDIRSGKQMHKLKGHTKWIRSIRMVEDTLITGSDDWTARVWSVSRGSCDAVLACHAGPVQSVEYSPFDKGIITGSADGLLRFWENDEGGIKCVKNITLHSSSILSINAGENWLGIGAADNSMSLFHRPSNAGTKVSGWQLYRVPQRTAAVVRCVASDLERKRICSGGRNGVLRLWDATINI
**Q.** For B1, which binding is on record?
**A.** Its binding is “binds”.
